Source: the supplement of paper PMC3334620
Whole data set: some 33,000 sequences, median “E-score (-0.5 to 0.5)” near -0.011, cut for the highest 2% near 0.28. This is one part of the list.

What follows are sequences tested against T1, Gcr1 (UniProt P07261) (assay: PBM E-score (8-mer binding enrichment) (E-score (-0.5 to 0.5)); higher = stronger / more preferred TF binding; most listed sequences are background and not binding sites). Conditions: protein concentration: 100 nM; construct: GST-full length.
T1 sequence: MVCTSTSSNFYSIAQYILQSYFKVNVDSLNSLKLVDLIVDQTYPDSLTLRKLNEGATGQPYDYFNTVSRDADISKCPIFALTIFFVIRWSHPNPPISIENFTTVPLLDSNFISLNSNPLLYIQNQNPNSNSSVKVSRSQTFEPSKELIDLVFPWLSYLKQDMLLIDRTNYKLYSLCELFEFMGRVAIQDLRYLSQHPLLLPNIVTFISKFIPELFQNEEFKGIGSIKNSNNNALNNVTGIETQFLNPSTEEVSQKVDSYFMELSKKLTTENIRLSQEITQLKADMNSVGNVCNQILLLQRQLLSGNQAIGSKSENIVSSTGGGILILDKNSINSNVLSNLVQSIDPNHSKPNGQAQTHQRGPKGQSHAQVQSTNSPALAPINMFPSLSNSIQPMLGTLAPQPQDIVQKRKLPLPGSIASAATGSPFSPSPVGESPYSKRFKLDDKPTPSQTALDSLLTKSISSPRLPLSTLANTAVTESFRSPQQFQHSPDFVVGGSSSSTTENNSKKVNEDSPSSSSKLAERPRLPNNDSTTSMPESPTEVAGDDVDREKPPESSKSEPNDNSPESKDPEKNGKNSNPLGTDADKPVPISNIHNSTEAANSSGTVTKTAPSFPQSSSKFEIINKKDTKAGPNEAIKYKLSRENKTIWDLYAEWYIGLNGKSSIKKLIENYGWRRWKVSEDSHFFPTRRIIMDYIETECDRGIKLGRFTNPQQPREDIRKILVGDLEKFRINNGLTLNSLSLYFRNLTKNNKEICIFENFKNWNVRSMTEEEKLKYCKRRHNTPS
In short: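 GST-tagged yeast TFs (full-length or DNA-binding domain) were made by PURExpress in vitro transcription/translation and applied at about 100-200 nM to universal all-10-mer Agilent arrays. The arrays were made double-stranded by primer extension, on fresh or once-stripped slides. Bound protein was detected with fluorescent anti-GST, and scans were normalised with masliner. Each ungapped eight-base word, pooled with its reverse complement, received an E-score (modified Wilcoxon-Mann-Whitney statistic) from the Universal PBM Analysis Suite.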

Sequence	PBM E-score
AGCCGAAC	-0.184
CCCCCAAG	-0.0798
CCAGCACG	0.179
GCGGTTCA	-0.231
GCAACCTA	0.179
GACCGCAA	0.0768
AAGAACCG	0.0757
CATCTCTA	-0.198
ACATTCCT	0.0561
GATCGGTA	-0.0907
AAGACATT	-0.0207
CGCCCTGA	0.0841
CTGGTATC	0.231
GCATGAAA	-0.0306
GCACCGCC	-0.175
AGCAGGGC	-0.0214
ACGATCTG	-0.0915
ACAAGTGT	-0.142
ATAATTAA	0.134
AGCATCAC	0.00094
GAGCTCCA	-0.109
ACATGGAG	-0.201

Sequence	PBM E-score
CCCAGTGC	0.113
CAAGTTTA	0.0568
GCGGTTAC	0.0747
GATCGAAC	-0.0495
ACGAATTG	0.0645
CTAAGCAA	-0.0849
GTTTAGTA	0.146
AAGCTCTG	-0.0861
CGAACGAA	-0.122
AGCTCTCA	-0.161
GTTTTGCA	0.0247
GAGCTTCA	0.00823
AGTTTCTG	-0.0119
GCATCGGA	0.0246
CGGATTCA	-0.0182
ACGTACCA	0.118
AATCTCTC	-0.121
CTTTGACC	-0.0466
TCTTTCAA	-0.215
GGCCTTGA	-0.0649
AGGAATGC	0.228
AATCCGAG	0.0975

Sequence	PBM E-score
AACAGCAC	0.0366
TAACAGCA	0.201
ACGGTTAG	-0.0243
GCTGAGGA	-0.0958
ACCCTAGC	-0.00437
ATACATAC	0.0754
AAATAAGT	0.0572
ATAGCAGC	0.127
AGTCTTTG	-0.0405
ACCACTCG	0.0865
CCCTCCTC	-0.0251
GTAGTGGA	0.285
ACTGGTAC	0.205
ATTTGCCC	0.126
AATTAGGC	0.327
CGTGAACA	0.148
ATATGTGC	-0.063
CTCATTTC	-0.0305
CGTCATGA	-0.118
ATACCGAG	-0.0781
GGCCGTAC	-0.2
GCGGGTAA	-0.0803

Sequence	PBM E-score
AGCATTAT	-0.0632
CATAGAGG	0.0162
GGGTATTA	-0.0133
ACCCGAAA	0.14
ACGAGGTC	0.175
ATATATTC	-0.0491
CTGCATCC	0.249
ACAAACAA	-0.0402
CGTACCGA	-0.16
CCTTTCTC	-0.0392
CCACCTGC	-0.196
CAGTCATC	-0.266
ATAGTCTA	-0.158
TCCGTCCA	0.0563
TAGGTCAA	-0.206
CGTAATAG	0.112
AATCCGGC	0.181
GTCCTTAA	0.102
CCTAATTA	0.157
CCCCCATC	-0.144
ACCAGCAC	-0.0275
CCAAGCCG	-0.0556

Sequence	PBM E-score
CGGCCAGC	0.0354
AGCCCGAG	-0.113
AGAGCTCT	-0.198
GGCGATGA	-0.216
AGTCGACA	-0.00875
CTTAACTC	-0.0912
TATGGCCA	-0.0811
AATTGTCG	-0.151
CGAACTTA	-0.0605
CGACGTGC	-0.107
ATCGTCTA	0.0426
CCTCGAAA	-0.0179
AAGGAGTA	-0.182
CACCCACC	0.0648
CCCCAGAA	0.288
TAAGCGCA	-0.0709
ACCAATGG	0.0385
ATCCGCGA	0.0471
AAGGTATA	-0.131
GGTTCACA	-0.169
GAGTGCCC	-0.115
ACTTCCCT	-0.036
